Values come from read counts of a selection and are noisy.
Tested on: NB7
Assay: fold depletion of shRNA, plasmid library share / infected cells without Dox share (9 days) (ratio); higher = more depleted after infection (more toxic, leaky expression from a Tet-inducible vector; NB7 is a neuroblastoma line without caspase-8)
Settings: shRNA pool: CD95L ORF + CD95L 3'UTR + Venus libraries
Experimental: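 Pooled lethality screen in NB7 neuroblastoma cells infected with Dox-inducible pTIP shRNA libraries. The libraries tile every 21-mer of the Venus, CD95L or CD95 ORF / 3'UTR; each hairpin is the 21-nt sense sequence + CTCGAG loop + antisense. Cells were cultured 9 days with or without 100 ng/ml Dox. shRNA representation was measured by deep sequencing of the genomic inserts, normalised to the total reads per subpool and averaged over technical replicates. Fold depletion is the plasmid library share / infected cells without Dox share (mean of 2 biological replicates), and the -Dox/+Dox share ratio is the mean of 4 replicate pairings; higher values mean more depletion (toxicity).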
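Also: shRNA barcodes quantified by deep sequencing of PCR amplicons from cellular DNA, counts expressed as percent of each subpool, ratio averaged over two biological duplicates.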

Sequence | fold depletion of shRNA
ACGTAAACGGCCACAAGTTCA | 1.15
ACGTATCTGAGCTCTCTCTGG | 0.747
ACGTCCAGGAGCGCACCATCT | 1.43
ACGTCTATATCACCGCCGACA | 2.91
ACGTTTTTCGGCTTATATAAG | 0.687
ACTAAAGAGAGAATGTAGATA | 0.677
ACTAACAGATAAGCAAGAGAG | 0.469
ACTAATGATGTTTTCCTATAA | 0.491
ACTACAACAGCCACAACGTCT | 1.4
ACTACAAGACCCGCGCCGAGG | 1.4
ACTACCAGCAGAACACCCCCA | 1.22
ACTACCGCTGCCACCCCTGAA | 0.836
ACTACCTGAGCTACCAGTCCG | 1.82
ACTAGAGGCTTGCATAATAAG | 1.02
ACTCACCTAATGTTTATGAGC | 1.64
ACTCACCTCTCAAGGTGGGCC | 2.08
ACTCATTTCATTCCTAACACA | 2.13
ACTCCGAGAGTCTACCAGCCA | 1.46
ACTCTAAGTATCCCCAGGATC | 6.05
ACTCTAATAGTGCTTAAAAAT | 0.409

Sequence | fold depletion of shRNA
ACTCTCGGCATGGACGAGCTG | 1.09
ACTCTGGGCTGCCATGTGAAG | 2.29
ACTGCACTACTGGGCAGATGT | 3.78
ACTGCCTCCACTACCGCTGCC | 0.43
ACTGGCAGCATCTTCACTTCT | 1.77
ACTGGGTGGACAGCAGTGCCA | 19.9
ACTGTCTTTCAGATACATGGT | 1.86
ACTTCAAGGAGGACGGCAACA | 1.36
ACTTCCGGGGTCAATCTTGCA | 22
ACTTCTAAATGCATATCCTGA | 0.952
ACTTCTTCAAGTCCGCCATGC | 1.25
ACTTTGGGATTCTTTCCATTA | 3.53
ACTTTGTATATTCCAAAGTAT | 0.387
AGAACACCCCCATCGGCGACG | 1.83
AGAACATAGAACTCTGGGCTG | 2.7
AGAACTCTGGGCTGCCATGTG | 4.77
AGAAGACATGAACCAAGTGGA | 2.73
AGAAGAGAGGGAACCACAGCA | 2.94
AGAAGCAAATAGGCCACCCCA | 2.02

Same assay, conditions: shRNA pool: CD95 ORF + CD95 3'UTR + Venus libraries

Sequence | fold depletion of shRNA
ACGTAAACGGCCACAAGTTCA | 1.71
ACGTAATTAAATAATGTTTTT | 0.871
ACGTCCAGGAGCGCACCATCT | 1.3
ACGTCTATATCACCGCCGACA | 1.7
ACGTCTGTTGCTAGATTATCG | 2.76
ACGTTTAAATATCTTTGAAAG | 0.967
ACTAACTGCTCTCAGAGAAAG | 1.7
ACTAAGTCAAGTTAAAGGCTT | 0.759
ACTAATTGTTTGGGTGAAGAG | 1.52
ACTACAACAGCCACAACGTCT | 1.14
ACTACAAGACCCGCGCCGAGG | 1.14
ACTACAGTTGAGACTCAGAAC | 1.11
ACTACCAGCAGAACACCCCCA | 1.2
ACTACCTACTTCTTTCTCAGG | 1.83
ACTACCTGAGCTACCAGTCCG | 1.67
ACTACTATCCTACGTTTAAAT | 0.925
ACTAGTGACTCAGAAAATTCA | 1.04
ACTATCATCCTCAAGGACATT | 1.81
ACTATCCTACGTTTAAATATC | 0.846
ACTATTATATATGTGTATGCA | 1.18
ACTATTGCTGGAGTCATGACA | 2.2

Sequence | fold depletion of shRNA
ACTCACCAGCAACACCAAGTG | 1.29
ACTCAGAAAATTCAAACTTCA | 1.08
ACTCAGAACTTGGAAGGCCTG | 1.54
ACTCCAAGGGATTGGAATTGA | 1.57
ACTCTACTGTATGTGAACACT | 0.986
ACTCTATGAATCAATAGAAGA | 1.37
ACTCTCGGCATGGACGAGCTG | 0.641
ACTCTGAGAAGATCATATTTA | 0.996
ACTCTTGCAGAGAAAATTCAG | 2.29
ACTGAACAGGCAGGCCACTTT | 0.343
ACTGAAGCAGATACCTGGAAC | 3.05
ACTGACATCAACTCCAAGGGA | 1.46
ACTGCACAGTCAATGGGGATG | 0.808
ACTGCACCCGGACCCAGAATA | 1.51
ACTGCCCTTAGAAATTCTAGC | 1.27
ACTGCGTGCCCTGCCAAGAAG | 0.705
ACTGCTCTCAGAGAAAGTAGC | 5.87
ACTGCTTCGTAATTGGCATCA | 2.96
ACTGCTTGGTTTTTTACTGGG | 11
ACTGGCTCAAAACTACCTACT | 25.9
ACTGGGTACATTTTATCATTT | 0.937

Sequence | fold depletion of shRNA
ACTGTATGTGAACACTGTGAC | 2.36
ACTGTGAAGATAGTTATAAAC | 0.991
ACTGTGACCCTTGCACCAAAT | 2.94
ACTGTTACTACAGTTGAGACT | 1.08
ACTTAATAGTCCACCAAAAGG | 0.765
ACTTCAAGATCCGCCACAACA | 3.89
ACTTCAAGGAGGACGGCAACA | 1.46
ACTTCAGAAATGAAATCCAAA | 0.793
ACTTCATCAAGAGTAAATGCA | 1.14
ACTTCATGGAAAGAAAGAAGC | 0.741
ACTTCCATTTATGGAGGATTT | 1.24
ACTTCTTCAAGTCCGCCATGC | 1.43
ACTTCTTTCTCAGGCATCAAA | 1.83
ACTTGAGTAAATATATCACCA | 0.807
ACTTGGAAGGCCTGCATCATG | 0.42
ACTTGGGGTGGCTTTGTCTTC | 2.34
ACTTTAAATCCTGAAACAGTG | 1.28
ACTTTGCCTCTAAATTACCTC | 1.35
ACTTTGTTTATAACTCTGAGA | 0.777
ACTTTTTTTGTAACTCTACTG | 0.766
AGAAAACATGCAGAAAGCACA | 3.56

Sequence | fold depletion of shRNA
AGAAAACATTAAATTATAATG | 0.744
AGAAAATTCAAACTTCAGAAA | 1.32
AGAAAATTCAGACTATCATCC | 1.87
AGAAAGAAGCGTATGACACAT | 1.95
AGAAAGCACAGAAAGGAAAAC | 1.67
AGAAAGGAAAACCAAGGTTCT | 0.87
AGAAAGGAAGTACAGAAAACA | 0.892
AGAAAGTAGCTTTGTGACATG | 2.34
AGAAATAATATTTATATTTCT | 0.982
AGAAATGAAATCCAAAGCTTG | 1.41
AGAAATTCTAGCCTGGTTTGG | 3.79
AGAACACCCCCATCGGCGACG | 0.931
AGAACAGAAAGTTCAACTGCT | 1.88
AGAACGGCATCAAGGCCAACT | 5.76
AGAACTTCCATTTATGGAGGA | 1.89
AGAAGAACGGCATCAAGGCCA | 1.76
AGAAGAAGCTATGACCTTTTG | 0.874
AGAAGATCATATTTATGTAAA | 0.617
AGAAGATGTAGATTGTGTGAT | 1.09

Reference: the supplement of paper PMC5655136
